Laboratory results reported in patent US7745619B2, “Vinca derivatives” (priority 2003, dated 2010).

Test system: NCI-H322M
Test: cells
Conditions: Homo sapiens
Source text: The following data in Table 4 summarize the growth inhibition properties of several compounds of the present invention against 60-human transformed cell lines.

In the case of C#Cc1ccc2[nH]c3c(c2c1)CCN1C[C@H](C[C@@](O)(CC)C1)C[C@]3(C(=O)OC)c1cc2c(cc1OC)N(C)[C@H]1[C@@](O)(C(=O)OC)[C@H](OC(C)=O)[C@]3(CC)C=CCN4CC[C@]21[C@@H]43 [Example 17, 12′-ethynylvinblastine], the GI50 (read-out: GI50) is reported as < 0.01 µM.
For CC[C@]1(O)C[C@H]2CN(CCc3c([nH]c4ccc(C#Cc5ccccc5)cc34)[C@@](C(=O)OC)(c3cc4c(cc3OC)N(C)[C@H]3[C@@](O)(C(=O)OC)[C@H](OC(C)=O)[C@]5(CC)C=CCN6CC[C@]43[C@@H]65)C2)C1 [Example 19, 12′-(2-phenylethynyl) vinblastine], the GI50 was 0.429 µM.
CCCC(=O)/C=C/c1ccc2[nH]c3c(c2c1)CCN1C[C@H](C[C@@](O)(CC)C1)C[C@]3(C(=O)OC)c1cc2c(cc1OC)N(C)[C@H]1[C@@](O)(C(=O)OC)[C@H](OC(C)=O)[C@]3(CC)C=CCN4CC[C@]21[C@@H]43 [Example 29, 12′-(3-oxohex-1-enyl)vinblastine] gave a GI50 of 0.955 µM.

Like-named read-outs stand apart in the source and are kept apart here.
